Test results taken from the supplement of paper PMC9446081.
Among all 39,000 compounds or so, about 220 (0.56%) showed activity. The list shows a part of the results.
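Further: static incubation at 37 °C against the wild-type strain, values averaged over two biological replicates.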

These compounds were tested on Escherichia coli K-12 BW25113 (assay: relative growth (OD600 normalised to plate interquartile mean) (fraction); higher = less growth inhibition, active = 0.2 or less). Conditions: 50 µM; LB; incubation time: overnight (16-24 h).
`COCC(=O)N1C[C@@H](C)[C@H](OC)CN(C)C(=O)c2ccc(NC(=O)c3ccc(F)cc3)cc2OC[C@@H]1C` was tested, and the relative growth was inactive: 1.01. With `COC(=O)[C@H]1[C@H](CO)[C@H]2Cn3c(ccc(-c4ccccc4)c3=O)[C@H]2N1S(C)(=O)=O` the relative growth was inactive: 1.01. For `CCCCCCCCCCCC(CC1OC(=O)C1CCCCCC)OC(=O)C(CC(C)C)NC=O` (centres undefined), the relative growth was inactive: 0.828. In the case of `C[C@@H]1CN([C@H](C)CO)C(=O)c2cc(NS(C)(=O)=O)ccc2O[C@@H](C)CCCCO[C@@H]1CN(C)Cc1ccc(C(F)(F)F)cc1`, the relative growth is reported as inactive: 0.97. `CCCN(C)C[C@@H]1OCCCC[C@@H](C)Oc2ccc(NC(=O)Nc3ccc(C(F)(F)F)cc3)cc2C(=O)N([C@H](C)CO)C[C@@H]1C` was tested, and the relative growth was inactive: 0.997. `CC(C)NC(=O)Nc1ccc2c(c1)C(=O)N([C@H](C)CO)C[C@H](C)[C@H](CN(C)Cc1ccccc1)OCCCC[C@@H](C)O2` was tested, and the relative growth was inactive: 1.01. In the case of `COc1ccc(CN(C)C[C@H]2Oc3ccc(NC(=O)Nc4cccc5ccccc45)cc3C(=O)N([C@@H](C)CO)C[C@@H]2C)cc1`, the relative growth is reported as inactive: 1.06. With `CC1(C)NCS[C@H]1C(=O)O` the relative growth was inactive: 0.949. `CC(C)NC(=O)N(C)C[C@@H]1Oc2cc(C#Cc3ccc(F)cc3)ccc2S(=O)(=O)N([C@H](C)CO)C[C@@H]1C` was tested, and the relative growth was inactive: 0.992. `COCC#Cc1cnc2c(c1)C(=O)N([C@H](C)CO)C[C@@H](C)[C@H](CN(C)S(=O)(=O)c1ccccc1)O2` was tested, and the relative growth was inactive: 1.03. In the case of `Nc1ncnc2c1ncn2[C@@H]1O[C@H](C[C@@H](N)CC[C@H](N)C(=O)O)[C@@H](O)[C@H]1O`, the relative growth is reported as inactive: 1.01. In the case of `COc1ccc(CN(C)C[C@@H]2OCCCC[C@@H](C)Oc3ccc(NC(=O)Cc4ccccc4)cc3C(=O)N([C@H](C)CO)C[C@H]2C)cc1`, the relative growth is reported as inactive: 0.998. For `COc1ccc(C2CC(=O)c3c(O)cc(OC4OC(COC5OC(C)C(O)C(O)C5O)C(O)C(O)C4O)cc3O2)cc1O` (centres undefined), the relative growth was inactive: 1.01. With `C[C@@H]1CCCCO[C@@H](CN(C)S(=O)(=O)c2ccc(Cl)cc2)[C@H](C)CN([C@H](C)CO)C(=O)c2cc(NC(=O)Cc3ccccc3)ccc2O1` the relative growth was inactive: 1.05. For `C[C@@H]1CN([C@@H](C)CO)C(=O)c2cc(NS(=O)(=O)c3cccs3)ccc2O[C@@H](C)CCCCO[C@H]1CN(C)C(=O)Nc1cccc2ccccc12`, the relative growth was inactive: 1.03. In the case of `O=C(C[C@@H]1CC[C@@H]2NC[C@H](O)COC[C@H]2O1)NCCN1CCCCC1`, the relative growth is reported as inactive: 0.99. `Cc1ccc(S(=O)(=O)N(C)C[C@@H]2Oc3c(NC(=O)Nc4cccc5ccccc45)cccc3C(=O)N([C@@H](C)CO)C[C@H]2C)cc1` was tested, and the relative growth was inactive: 0.97. For `C[C@@H]1CCCCO[C@H](CN(C)Cc2ccc(C(=O)Nc3ccccc3N)cc2)[C@H](C)CN([C@@H](C)CO)C(=O)c2cc(N(C)C)ccc2O1`, the relative growth was inactive: 0.984. `C[C@@H]1CN([C@@H](C)CO)C(=O)c2cc(NC(=O)Nc3ccc(C(F)(F)F)cc3)ccc2O[C@H]1CN(C)Cc1ccc(C(=O)Nc2ccccc2N)cc1` was tested, and the relative growth was inactive: 1.03. For `CC(C)NC(=O)N(C)C[C@@H]1Oc2c(NC(=O)C3CCCCC3)cccc2C(=O)N([C@H](C)CO)C[C@H]1C`, the relative growth was inactive: 0.989. With `CCS(=O)(=O)Nc1ccc2c(c1)C(=O)N(C)[C@H]1CC[C@H](CC(=O)N[C@@H]3CCN(Cc4ccccc4)C3)O[C@@H]1CO2` the relative growth was inactive: 1. With `N=C1NCCC(C2NC(=O)C(=CNC(N)=O)NC(=O)C(CNC(=O)CC(N)CCCN)NC(=O)C(CO)NC(=O)C(N)CNC2=O)N1.O=S(=O)(O)O` (centres undefined) the relative growth was inactive: 1.04. For `C[C@@H]1CN([C@H](C)CO)C(=O)Cc2cc(NS(=O)(=O)c3ccc(Cl)cc3)ccc2O[C@H]1CN(C)C(=O)Nc1ccc(C(F)(F)F)cc1`, the relative growth was inactive: 0.987. `COc1cc(OC)c2c(c1Cl)OC1(C2=O)C(O)=CC(=O)CC1C` (centres undefined) was tested, and the relative growth was inactive: 0.925. `O=C1OCCC=C[C@H]2O[C@@]34C=CCN(c5ccc(Cl)cc5)C(=O)[C@H]3N(CCCCCCO)C(=O)[C@@H]4[C@@H]12` was tested, and the relative growth was inactive: 0.997. With `COC(=O)C[C@H]1CC[C@@H]2[C@H](COC[C@@H](O)CN2S(=O)(=O)c2ccccc2C)O1` the relative growth was inactive: 0.942. With `C[C@@H]1CN([C@@H](C)CO)C(=O)c2cc(/C=C/c3ccccc3)cnc2O[C@H]1CN(C)C(=O)c1cnccn1` the relative growth was inactive: 0.995. For `C[C@@H]1CN([C@H](C)CO)C(=O)Cc2cc(NC(=O)c3ccncc3)ccc2O[C@H]1CN(C)C(=O)Nc1ccc2c(c1)OCO2`, the relative growth was inactive: 0.997. With `COc1ccc(NC(=O)O[C@H]2[C@@H]3OC(=O)[C@H](Cc4cccc(Br)c4)C/C=C/C[C@@H](Cc4cccc(Br)c4)C(=O)O[C@H]3[C@@H](OC)O[C@@H]2CO)cc1` the relative growth was inactive: 1.01. For `CO[C@@H]1CN(C)C(=O)c2ccc(NS(=O)(=O)c3ccccc3F)cc2OC[C@@H](C)N(S(C)(=O)=O)C[C@H]1C`, the relative growth was inactive: 0.988. In the case of `COc1cccc(S(=O)(=O)N2C[C@@H](O)COC[C@H]3O[C@@H](CC(=O)N4CCOCC4)CC[C@@H]32)c1`, the relative growth is reported as inactive: 0.994. In the case of `C[C@@H]1CCCCO[C@H](CN(C)S(=O)(=O)c2ccc(Cl)cc2)[C@@H](C)CN([C@@H](C)CO)C(=O)c2cc(NC(=O)CCC(F)(F)F)ccc2O1`, the relative growth is reported as inactive: 0.967. `COc1ccc(CN(C)C[C@@H]2OCCCC[C@H](C)Oc3ccc(NC(=O)Nc4ccc(OC)cc4)cc3C(=O)N([C@@H](C)CO)C[C@H]2C)cc1` was tested, and the relative growth was inactive: 0.985. For `CC(C)CC#Cc1ccc2c(c1)O[C@H](CN(C)CC1CCOCC1)[C@@H](C)CN([C@H](C)CO)S2(=O)=O`, the relative growth was inactive: 1.03. `C[C@@H]1CN([C@@H](C)CO)C(=O)c2cc(NS(=O)(=O)c3ccccc3)ccc2O[C@@H](C)CCCCO[C@@H]1CN(C)C(=O)c1ccccc1` was tested, and the relative growth was inactive: 0.967. In the case of `CCOC(=O)/C=C/C(=O)N1CCC=CC1=O`, the relative growth is reported as inactive: 0.951. For `C[C@H](CO)N1C[C@H](C)[C@@H](CN(C)S(=O)(=O)c2ccccc2)Oc2ncc(-c3cccc(C(=O)N(C)C)c3)cc2C1=O`, the relative growth was inactive: 1. In the case of `C[C@H](CO)N1C[C@H](C)[C@@H](CN(C)S(=O)(=O)c2ccccc2)Oc2c(NC(=O)C3CC3)cccc2C1=O`, the relative growth is reported as inactive: 0.97. With `COc1ccc(C(=O)Nc2cccc(CN3C(=O)[C@@]4(O[C@@H](CC(=O)N5CCC[C@H]5CO)[C@H]([Si](C)(C)c5ccc(OC)cc5)[C@H]4C)c4ccccc43)c2)cc1` the relative growth was inactive: 1. With `N#CN=C1NC(=O)CC(=O)N1` the relative growth was inactive: 1. `C[C@H](CO)N1C[C@H](C)[C@@H](CN(C)C(=O)Nc2ccc(C(F)(F)F)cc2)Oc2ccc(NC(=O)Cc3ccccc3)cc2CC1=O` was tested, and the relative growth was inactive: 1.04. In the case of `Cc1noc(C)c1S(=O)(=O)Nc1ccc2c(c1)C(=O)N([C@H](C)CO)C[C@H](C)[C@H](CN(C)Cc1ccccc1)OCCCC[C@@H](C)O2`, the relative growth is reported as inactive: 0.988. For `C[C@H](CO)N1C[C@H](C)[C@@H](CN(C)Cc2ccc3c(c2)OCO3)OCCCC[C@H](C)Oc2ccc(NS(=O)(=O)c3ccc(F)cc3)cc2C1=O`, the relative growth was inactive: 0.993. In the case of `C[C@@H]1CN([C@H](C)CO)C(=O)c2cc(NC(=O)C3CCCCC3)ccc2O[C@@H](C)CCCCO[C@H]1CN(C)S(=O)(=O)c1ccccc1`, the relative growth is reported as inactive: 0.989. With `C[C@@H]1CCCCO[C@H](CN(C)C(=O)Nc2ccccc2)[C@@H](C)CN([C@H](C)CO)C(=O)c2cc(NC(=O)Nc3ccc(F)cc3)ccc2O1` the relative growth was inactive: 1. In the case of `Cc1[nH]c(=O)[nH]c(=O)c1CCC(=O)O`, the relative growth is reported as inactive: 1.01. `O=C(C[C@@H]1CC[C@H]2[C@@H](COC[C@H](O)CN2Cc2cc(F)ccc2F)O1)N[C@H]1CCN(Cc2ccccc2)C1` was tested, and the relative growth was inactive: 1.01. For `Cn1cc(-c2nc(N[C@@H]3CCCC[C@@H]3N)c(F)c3c2C(=O)NC3)cn1`, the relative growth was inactive: 1.01. For `Cn1cnc(S(=O)(=O)N2C[C@@H](O)COC[C@H]3O[C@H](CC(=O)NCc4ccc(F)cc4)CC[C@@H]32)c1`, the relative growth was inactive: 1.02. For `Cc1noc(C)c1NC(=O)Nc1cccc2c1O[C@H](CN(C)S(=O)(=O)c1ccccc1)[C@@H](C)CN([C@@H](C)CO)C2=O`, the relative growth was inactive: 0.999. In the case of `C[C@@H]1CN([C@H](C)CO)C(=O)c2c(c3ccccc3n2C)-c2ccccc2CO[C@@H]1CN(C)S(C)(=O)=O`, the relative growth is reported as inactive: 0.989. In the case of `C[C@@H]1CN([C@H](C)CO)C(=O)c2cc(NC(=O)CCC(F)(F)F)ccc2O[C@H]1CN(C)Cc1ccc(C(F)(F)F)cc1`, the relative growth is reported as inactive: 1.04. In the case of `C[C@@H]1CN([C@H](C)CO)C(=O)Cc2cc(NC(=O)Cc3cn(C)c4ccccc34)ccc2O[C@@H]1CN(C)S(=O)(=O)c1cn(C)cn1`, the relative growth is reported as inactive: 1.02. With `C[C@H](CO)N1C[C@H](C)[C@H](CN(C)Cc2ccc(-c3ccccc3)cc2)Oc2ccc(NC(=O)C3CC3)cc2C1=O` the relative growth was inactive: 1.02. In the case of `COc1ccc(S(=O)(=O)Nc2ccc3c(c2)C(=O)N([C@@H](C)CO)C[C@@H](C)[C@H](CN(C)Cc2ccccc2)OCCCC[C@@H](C)O3)cc1`, the relative growth is reported as inactive: 0.999. In the case of `CC(C)NC(=O)Nc1cccc2c1O[C@H](CN(C)S(=O)(=O)c1ccccc1)[C@H](C)CN([C@@H](C)CO)C2=O`, the relative growth is reported as inactive: 0.986. With `O=C(C[C@H]1C[C@@H]2c3cc(NS(=O)(=O)c4ccc(F)cc4)ccc3O[C@@H]2[C@H](CO)O1)N1CCOCC1` the relative growth was inactive: 1.03. With `FC(F)(F)COCC(F)(F)F` the relative growth was inactive: 1.18. In the case of `C[C@@H]1CCCCO[C@H](CN(C)S(=O)(=O)c2cn(C)cn2)[C@H](C)CN([C@@H](C)CO)C(=O)c2cc(N(C)C)ccc2O1`, the relative growth is reported as inactive: 0.986.
